Among all 360,000 compounds or so, about 7,500 (2.1%) were called active. This list was built around the results that the source calls inconclusive (neither active nor inactive); the mix of calls is not that of the screen. Calls come from the whole dose curve; as a rule, active = well fitted cell-killing curve with a large enough effect; inconclusive = small, poorly fitted or top-dose-only effect, or effect the other way, or another doubt; inactive = no such curve, though single readings can be large or run the other way. Potencies of inconclusive entries are left out as doubtful fits.
Experiment: qHTS for induction of synthetic lethality in tumor cells producing 2HG: qHTS for the HT-1080-IDH1KD cell line;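 for activity, negative = toxicity: 0% = DMSO wells and -100% = cell-free medium wells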
Conditions: HT-1080 IDH1 knockdown viability, ATP luminescence, 48 h; activity, negative = toxicity: at 46.1 µM (top of the series) unless noted
Procedure, shortened: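 In this qHTS, HT-1080 cells depleted of IDH1 are exposed for 48 h at 37 °C to compound titrations. Toxicity is scored from CellTiter-Glo luminescence, with DMSO as full viability and medium alone as none.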
In the case of `Cc1ccc(N(CC2CO2)S(=O)(=O)c2ccc([N+](=O)[O-])cc2)cc1` (stereo not given), the Potency is reported as inconclusive [cytotoxic, single point].
For `C/C(N)=C(/C#N)C(=O)CSc1ccccc1F`, the Potency was inconclusive [rising, single point].
For `CC1CCN(C(=O)C2CCN(S(=O)(=O)c3ccc4c(c3)CC(C)N4C(=O)C3CC3)CC2)CC1` (stereo not given), the Potency was “inactive”.
With `Cc1ccc(S(=O)(=O)c2c(N)n(CCC(C)C)c3nc4ccccc4nc23)cc1` the Potency was inconclusive [cytotoxic, single point].
With `CC1CC(N(C(=O)c2ccccc2Cl)c2ccccc2)c2ccccc2N1` (stereo not given) the Potency was active: 23.1 µM.
For `CC(C)n1cnnc1SCC(=O)NNC(=O)COc1ccc(Cl)cc1`, the Potency was “inactive”.
For `Cc1cc2[nH]c3c4ccccc4nc(C)c3c2cc1C`, the Potency was inconclusive [cytotoxic, single point].
In the case of `CCCCCn1c(SCC(=O)c2ccccc2)nc2cc(C(=O)NCC3CCCO3)ccc2c1=O` (stereo not given), the Potency is reported as “inactive”.
For `CCCCSc1nc2ccc(Nc3nc(N4CCOCC4)nc(N4CCOCC4)n3)cc2s1`, the Potency was inconclusive [cytotoxic, single point].
In the case of `COCCNC(=O)C1CC(c2ccc(F)cc2)=NO1` (stereo not given), the Potency is reported as “inactive”.
In the case of `COc1ccc(-c2coc3c(C)c4oc(=O)c(CCC(=O)O)c(C)c4cc23)cc1`, the Potency is reported as inconclusive [cytotoxic, partial curve, poor fit].
With `CN(CCC#N)c1ccc(C=C(C#N)c2ccc(Br)cc2)cc1` the Potency was inconclusive [cytotoxic, single point].
For `O=C(NN=Cc1ccccc1O)NN=Cc1ccccc1O`, the Potency was active: 8.2 µM.
With `Cc1csc(-c2coc3cc(O)cc(C)c3c2=O)n1` the Potency was inconclusive [cytotoxic, single point].
In the case of `CC(/C=N/NC(=O)c1cc(-c2cccn2C)n[nH]1)=C\c1ccccc1`, the Potency is reported as inconclusive [cytotoxic, single point].
For `CC(C)(C)c1nc2ccc(Cl)cn2c1CC1CCCCC1`, the Potency was “inactive”.
In the case of `COc1ccc(CSc2nc3ccccc3[nH]2)cc1`, the Potency is reported as inconclusive [cytotoxic, single point].
For `Cn1nc(Cc2n[nH]c(=S)n2C)c2ccccc2c1=O`, the Potency was “inactive”.
In the case of `COCCN(C(=S)Nc1ccc(C)cc1C)C(C)c1cccs1` (stereo not given), the Potency is reported as “inactive”.
In the case of `O=C(CCS(=O)(=O)c1ccccc1)N1CCN(c2cccc(C(F)(F)F)c2)CC1`, the Potency is reported as inconclusive [cytotoxic, partial curve].
With `Cc1cccc(C)c1-n1nnnc1SCSc1nnnn1-c1c(C)cccc1C` the Potency was inconclusive [cytotoxic, full curve].
For `Cc1noc(C)c1S(=O)(=O)N1CCCN(C(=O)/C=C/c2ccccc2F)CC1`, the Potency was “inactive”.
For `CCOC(=O)c1c(CSc2ccsc2)n(C)c2cc(Br)c(O)c(CN(C)C)c12`, the Potency was “inactive”.
With `O=C(Nc1ccc(O)cc1)c1cc2n(n1)C(C(F)(F)F)CC(c1ccco1)N2` (stereo not given) the Potency was inconclusive [cytotoxic, single point].
For `Cc1cccc(C)c1N1CCN(c2ccc3nnc(C(F)(F)F)n3n2)CC1`, the Potency was inconclusive [cytotoxic, single point].
For `CC1(C)CC[C@]2(C(=O)O[C@@H]3OC(CO)[C@@H](O)[C@H](O)[C@H]3O)CC[C@]3(C)C(=CCC4[C@@]5(C)CC[C@H](O[C@@H]6OC(C(=O)O)[C@@H](O)[C@H](O)[C@H]6O)C(C)(C)C5CC[C@]43C)[C@@H]2C1` (stereo not given in full), the Potency was “inactive”.
For `O=C(COC(=O)c1cncc(Br)c1)NCc1ccc(Cl)cc1`, the Potency was “inactive”.
For `CCCN(CCC)S(=O)(=O)c1ccc(C(=O)Nc2nnc(-c3cccc(OC)c3)o2)cc1`, the Potency was inconclusive [cytotoxic, partial curve].
With `CCOC(=O)c1cc2ccc(OC(=O)c3ccco3)cc2oc1=O` the Potency was inconclusive [cytotoxic, partial curve, poor fit].
In the case of `O=C(Nc1nnc(SCc2ccc(F)cc2)s1)c1ccccn1`, the Potency is reported as inconclusive [cytotoxic, partial curve].
For `CCC(=O)N1CCc2cc(OC)c(OC)cc2C1COc1ccc(C(=O)OC)cc1` (stereo not given), the Potency was inconclusive [cytotoxic, single point].
With `CCCOc1ccc(C(=O)C(CN2CCCC2)c2ccccc2)cc1` (stereo not given) the Potency was active: 6.51 µM.
For `CCCc1ccc(NC(=O)C2CCN(c3cnccn3)CC2)cc1`, the Potency was inconclusive [cytotoxic, partial curve].
In the case of `COc1ccc2c3n(nc2c1)CCN=C3c1cc(Cl)c(N)c(Cl)c1`, the Potency is reported as inconclusive [cytotoxic, single point].
For `COc1ccc(/C=N/Nc2ccccc2)cc1Cn1nc(C)c([N+](=O)[O-])c1C`, the Potency was inconclusive [cytotoxic, partial curve].
With `O=C(NNC(=O)c1cc(Cl)ccc1O)c1cccc(S(=O)(=O)N2CCOCC2)c1` the Potency was inconclusive [cytotoxic, single point].
For `CC1([N+](=O)[O-])COC2(CCCCC2)OC1`, the Potency was “inactive”.
In the case of `O=C1c2[nH]nc(-c3ccccc3O)c2C(c2ccc(F)cc2)N1Cc1ccco1` (stereo not given), the Potency is reported as inconclusive [cytotoxic, single point].
With `CCOC(=O)N1CCC(N(C(=O)Nc2ccc(CC)cc2)C(C)CC)CC1` (stereo not given) the Potency was “inactive”.
In the case of `C=CC[C@@H](CC(=O)OC(C)(C)C)C(=O)OC[C@@H]1CCCN1C(=O)[C@@H](CC=C)CC(=O)N(CCO)Cc1ccccc1`, the activity, negative = toxicity is reported as inconclusive: -11.1%.
With `CCCCCCN1C[C@H](n2cc(C3CC3)nn2)[C@@H](O)C[C@@H]1c1ccccc1` the Potency was inconclusive [cytotoxic, single point].
In the case of `COc1cccc(C=NNC(=O)c2ccncc2)c1O`, the Potency is reported as active: 1.46 µM.
For `CSc1nccc(-c2nn(-c3ccc(C)cc3)ccc2=O)n1`, the Potency was active: 8.2 µM.
For `CCOc1cc(/C=C(\C#N)c2nc(-c3cccs3)c(NC(C)=O)s2)ccc1O`, the Potency was active: 2.91 µM.
For `C=C(C)COc1ccc(-c2[nH]ncc2-c2ccc(Br)cc2)c(O)c1`, the Potency was active: 23.1 µM.
With `COc1ccccc1OCCCC(=O)NC(C)c1ccccc1` (stereo not given) the Potency was “inactive”.
For `CC(C)c1ccc(-c2csc3ncnc(N4CCN(C)CC4)c23)cc1`, the Potency was active: 20.6 µM.
In the case of `COc1cccc(/C=N/NC(=O)C(=O)N/N=C/c2cccc(OC)c2O)c1O`, the Potency is reported as “inactive”.
With `Cc1ccc2nc(CCc3nc4ccc(C)cc4[nH]3)[nH]c2c1` the Potency was inconclusive [cytotoxic, single point].
In the case of `Oc1c(I)cc(Cl)c2cccnc12`, the Potency is reported as active: 11.6 µM.
For `CC(=O)Nc1ccc(-c2ccnc3c2CC(C)(C(=O)Nc2cccc(C(F)(F)F)c2)O3)cc1` (stereo not given), the Potency was inconclusive [cytotoxic, single point].
In the case of `NC(=S)NN=C1c2ccccc2-c2c(F)c(F)c(F)c(F)c21`, the Potency is reported as inconclusive [cytotoxic, single point].
For `COc1ccc2c(=O)cc(-c3ccncc3)oc2c1OC`, the Potency was active: 23.1 µM.
For `CCOC(=O)C1(CCc2ccccc2)CCN(Cc2nccn2CC)CC1`, the Potency was inconclusive [cytotoxic, partial curve].
With `CCOc1ccc(-c2cc(NC(=O)Cn3ncc4c3-c3ccccc3OC4)on2)cc1OCC` the Potency was “inactive”.
With `CC(=O)Oc1ccc(C2=NN(c3ccccc3)C(c3ccccc3)C2)cc1` (stereo not given) the Potency was inconclusive [cytotoxic, single point].
For `Cn1nc(C(=O)NCc2ccccc2)cc1C(=O)NCc1ccccc1`, the activity, negative = toxicity was inconclusive: -18.7% [cytotoxic].
With `Cc1cccc(NC(=O)C(C)Sc2nc3ccccc3c(=O)n2CCCN2CCOCC2)c1` (stereo not given) the Potency was inconclusive [cytotoxic, partial curve].
With `CCCn1c(NCc2ccccc2NS(=O)(=O)c2ccc(C)cc2)nc2ccccc21` the Potency was inconclusive [cytotoxic, single point].
With `O=C(NCC1CCCO1)C(c1cccs1)N(Cc1ccccc1Cl)C(=O)c1ccc(-c2ccccc2)[nH]1` (stereo not given) the Potency was inconclusive [cytotoxic, single point].
For `CCC(C)[C@H](NC(=O)N1c2ccccc2NC(=O)[C@@H]1C(C)C)C(=O)N[C@@H](Cc1ccccc1)C(=O)O` (stereo not given in full), the Potency was inconclusive [cytotoxic, single point].
In the case of `COC(=O)[C@@]12CCCCN1[C@H](c1ccc(-c3cccc(Cl)c3)c(OC)c1)[C@@H]1C(=O)N(C)C(=O)[C@@H]12`, the Potency is reported as inconclusive [cytotoxic, single point].
For `C[C@H]1CCC[C@]2(O[C@@H](CCO)C[C@H](O)[C@H]2O)O1`, the activity, negative = toxicity was inconclusive: 10.1%.
In the case of `COc1cc(OC)c(OC)cc1CN1CCN(c2ccccc2OC)CC1`, the Potency is reported as inconclusive [cytotoxic, single point].
For `CC(C)CCN(C)C1CCN(C(=O)Nc2c(F)cccc2F)CC1`, the Potency was “inactive”.
In the case of `COc1ccccc1C(=O)Nc1nc2cc3c(cc2s1)OCCO3`, the Potency is reported as inconclusive [cytotoxic, single point].
In the case of `Cc1ccc(S(=O)(=O)NCC2CCC(C(=O)NCc3cccnc3)CC2)cc1` (stereo not given), the Potency is reported as “inactive”.
For `COc1ccc(N=C2C(=Nc3ccc(OC)cc3)N(c3ccc(OC)cc3)C(=S)N2C)cc1`, the Potency was inconclusive [cytotoxic, partial curve].
With `O=C(Nc1ccccc1N1CCCCC1)c1ccc(Cl)c([N+](=O)[O-])c1` the Potency was inconclusive [cytotoxic, single point].
For `CC(C)(C)c1ccc(NC(=O)Nc2ccc(OCC(=O)N3CCOCC3)cc2)cc1`, the Potency was inconclusive [cytotoxic, single point].

Source: PubChem BioAssay AID686971 (National Center for Advancing Translational Sciences (NCATS), 2013)
Potency is the fitted concentration of half-maximal effect; tags give direction and shape of the fitted curve.
